PubChem BioAssay AID894 (National Center for Advancing Translational Sciences (NCATS), 2007)
Hit rate of the full screen: of about 150,000 compounds, about 6,500 (4.3%) were called active. The inconclusive results got no clear call from the source; some entries with a clear call stand among them for comparison. Calls follow the shape of the dose curve; as a rule, active = well fitted inhibition curve with a large enough effect (not every such curve was filed as active); inconclusive = small, poorly fitted or top-dose-only effect, or another doubt; inactive = no such curve, though single readings can be large or run the other way. Potencies of inconclusive entries are left out as doubtful fits.

target: 15-hydroxyprostaglandin dehydrogenase [NAD(+)] (Homo sapiens) (UniProt P15428); assay: qHTS Assay for Inhibitors of HPGD (15-Hydroxyprostaglandin Dehydrogenase); details: purified HPGD, NADH fluorescence kinetic, PGE2 substrate; activity change, negative = inhibition: active compounds read low
Source text: Human 15-Hydroxyprostaglandin dehydrogenase (HPGD) catalyzes the inactivation of prostaglandin E2, and plays a major role in cancer biology by antagonizing the oncogenic potential of cyclooxygenase type 2 (COX2). Assays are available, based on absorbance/fluorescence increase of NADH with the substrate 15-OH prostaglandin E2. References 1. Myung SJ, Rerko RM, Yan M, Platzer P, Guda K, Dotson A, Lawrence E, Dannenberg AJ, Lovgren AK, Luo G, Pretlow TP, Newman RA, Willis J, Dawson D, Markowitz SD. 15-Hydroxyprostaglandin dehydrogenase is an in vivo suppressor of colon tumorigenesis. […] 2. Yan M, Rerko RM, Platzer P, Dawson D, Willis J, Tong M, Lawrence E, Lutterbaugh J, Lu S, Willson JK, Luo G, Hensold J, Tai HH, Wilson K, Markowitz SD. 15-Hydroxyprostaglandin dehydrogenase, a COX-2 oncogene antagonist, is a TGF-beta-induced suppressor of human gastrointestinal cancers. Proc Natl Acad Sci U S A. 2004 Dec 14;101(50):17468-73. 3. Yang L, Amann JM, Kikuchi T, Porta R, Guix M, Gonzalez A, Park KH, Billheimer D, Arteaga CL, Tai HH, Dubois R, Carbone DP, Johnson DH. Inhibition of Epidermal Growth Factor Receptor Signaling Elevates 15-Hydroxyprostaglandin Dehydrogenase in Non-Small-Cell Lung Cancer. Cancer Res. 2007 Jun 15;67(12):5587-5593. Inhibition of HPGD activity was screened by utilizing prostaglandin as an electron donor and NAD+ as an electron acceptor/cofactor. An increase in the fluorescence intensity due to conversion of NAD+ to NADH was used to measure the enzyme activity. NIH Chemical Genomics Center [NCGC] Structural Genomics Consortium [SGC]
Buffer: 50 mM Tris-HCl, 0.01% Tween 20, pH 8. Enzyme Buffer: 50 mM Tris-HCl, 0.5 mM NAD+ and 0.01% Tween 20, pH 8. Reagents/Controls: Buffer in columns 3 and 4 as negative control (no enzyme). Substrate/cofactor solution: 1 mM NAD+ and 30 uM prostaglandin (Sigma, prostaglandin E2, # P5640) final concentrations dispensed throughout the plate. Enzyme: 20 nM HPGD final concentration in columns 1, 2, 5-48. Column 1 and 2 is neutral (100% activity). A titration of control inhibitor GW5074 (G6416 Sigma-Aldrich, St. Louis, MO) top concentration 10 mM in DMSO, then 1:2 dilution for a total of 16 concentrations in duplicate) was pin-transferred into column 2. Assay Steps: Three uL of enzyme were dispensed to 1536-well Greiner black solid bottom plates. Compounds and control inhibitor (23 nL) were transferred via Kalypsys PinTool. The plates were incubated for 15 min at room temperature, and then 1 uL of substrate/cofactor solution was added to start the reaction. The plates were immediately transferred to and read 5 times every 30 seconds on ViewLux High-throughput CCD imager (Perkin-Elmer) using 360 nm excitation and 450 nm emission fluorescence protocol. The fluorescence intensity difference between the last and the first time points was used to compute reaction progress.
% is scaled to controls: 0 for no effect and ±100 for the full control effect; potency is read from the fitted curve at half-maximal effect; tags tell the direction and shape of the fitted curve.

Chain of UniProt P15428 (P15428 whole entry, looked up): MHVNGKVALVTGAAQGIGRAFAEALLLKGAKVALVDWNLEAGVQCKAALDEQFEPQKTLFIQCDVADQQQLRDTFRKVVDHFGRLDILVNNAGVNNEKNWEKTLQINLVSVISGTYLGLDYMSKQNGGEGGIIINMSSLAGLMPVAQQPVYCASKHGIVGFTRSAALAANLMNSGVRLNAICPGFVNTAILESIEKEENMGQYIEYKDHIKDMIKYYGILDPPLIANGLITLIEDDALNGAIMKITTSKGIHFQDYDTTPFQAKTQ

SMILES	Potency	activity change, negative = inhibition
COC(=O)C1=CN(Cc2cccs2)C=C(C(=O)OC)C1c1cccc(OC)c1OC	inconclusive [inhibitor, partial curve]	–
Cc1ccc(CNC(=O)c2cn(C3CCCC3)c(=O)c3c2c2ccccc2n3C)o1	inconclusive [inhibitor, partial curve]	–
O=C(NCc1cn2ccccc2n1)c1ccc(Br)o1	inconclusive [inhibitor, partial curve]	–
Cc1cccc(C)c1Nc1ncnc(N)c1[N+](=O)[O-]	–	inactive: -0.0639%
CCSc1n[nH]c2nc3c(c(=O)n12)C1(CCCC1)Cc1ccccc1-3	inconclusive [inhibitor, partial curve]	–
CCCCOC(=O)Nc1nnc(/C=C/c2ccc(OC)cc2)s1	inconclusive [inhibitor, partial curve]	–
CC1CCCC(C)N1C(=O)COC(=O)c1ccc(O)cc1 (centres undefined)	inconclusive [inhibitor, partial curve]	–
C/C(=N\NC(=O)c1ccco1)c1ccc(NC(=O)c2cccs2)cc1	inconclusive [inhibitor, partial curve]	–
O=C(CSc1ccc2nnc(-c3cccnc3)n2n1)N1CCOCC1	inconclusive [inhibitor, partial curve]	–
O=C(C1CC1)N1CCN(C(c2ccccc2)c2ccccc2)CC1	–	inactive: -6.19%
S=c1[nH]nc(-c2cc(-c3ccco3)[nH]n2)n1-c1ccccc1	active: 20 µM	–
O=C(CSCc1ccc(F)cc1)NCc1ccco1	inconclusive [inhibitor, single point]	–
CCOC(=O)c1c(-c2ccccc2)csc1NC(=O)c1cccc(N2C(=O)CCC2=O)c1	inconclusive [inhibitor, partial curve]	–
CC(=O)c1c(C(C)=O)c(C)n(NC(=O)c2ccccc2Cl)c1C	inconclusive [inhibitor, single point]	–
CCc1ccc(NC(=O)CSc2nc3cc(C(=O)OC)ccc3c(=O)n2CC2CCCO2)cc1 (centres undefined)	–	inactive: -21.8%
O=C(c1ccc(CNS(=O)(=O)c2ccccc2)cc1)N1CCN(Cc2ccccc2)CC1	inconclusive [inhibitor, single point]	–
O=C(Cc1cccs1)NCc1ccccc1F	active: 25.1 µM	–
CCCOC(=O)c1c(NC(=O)/C=C/c2cnn(C)c2C)sc(C(=O)OCC)c1C	inconclusive [inhibitor, partial curve]	–
O=C(NCCCN1CCCC1=O)c1ccccc1NS(=O)(=O)c1ccc(F)cc1	inconclusive [inhibitor, partial curve]	–
CCN(CC)S(=O)(=O)c1ccc(NCc2ccccc2)nc1	inconclusive [inhibitor, partial curve]	–
CCCCN(CCCC)CCNC(=O)CNC(=O)c1cccs1	–	inactive: -11.9%
COc1ccccc1NC(C)C(=O)N/N=C/c1ccccc1OCc1cccc(Br)c1 (centres undefined)	–	inactive: -4.71%
Cc1ccc(-c2nc(=S)c3c(n2CC2CCCO2)CC(C)(C)OC3)cc1 (centres undefined)	–	inactive: -19.1%

SMILES	Potency	activity change, negative = inhibition
Cc1nc(-c2cccc(NS(=O)(=O)c3ccccc3)c2)cs1	active: 14.1 µM	–
CC1CCN(CCOc2cccc(Br)c2)CC1	–	inactive: -5.33%
O=C1C2C3C=CC(C4CC34)C2C(=O)N1/N=C/c1ccc(-c2ccc(Cl)cc2[N+](=O)[O-])o1 (centres undefined)	inconclusive [inhibitor, partial curve]	–
CC(=C1C(=O)c2ccccc2C1=O)N1CCc2ccccc2C1	–	inactive: -12.8%
CCN1CCc2c(OCC(=O)N3N=C(c4cccs4)CC3c3ccc(F)cc3)cccc2C1=O (centres undefined)	inconclusive [inhibitor, single point]	–
O=C1[C@H]2[C@H]3C=C[C@@H](C4[C@H]3[C@@H]3C(=O)N(CN5CCSCC5)C(=O)[C@H]43)[C@H]2C(=O)N1CN1CCSCC1 (some centres undefined)	–	inactive: -4.71%
COc1ccc(-n2nnc3c(=O)n(CC(=O)NCC4CCCO4)cnc32)cc1 (centres undefined)	inconclusive [inhibitor, partial curve]	–
COc1ccc(NC(=O)c2ccc(Cc3ccc(C)cc3)o2)cc1	inconclusive [inhibitor, partial curve]	–
COc1ccc(C2Nc3ccccc3C(=O)N2Cc2ccco2)cc1COc1ccc(NC(C)=O)cc1 (centres undefined)	inconclusive [inhibitor, partial curve]	–
CN(C)/C=C/C(=O)c1cccc(Cl)c1	active: 25.1 µM	–
CCOc1ccc(-c2cc(C(=O)N3CCN(c4ccccn4)CC3)c3ccccc3n2)cc1	inconclusive [inhibitor, partial curve]	–
O=C(NNC(=S)Nc1cccc(Cl)c1)c1ccccc1OC(F)F	–	inactive: -12%
CC(C)CCNC(=O)Cn1c2c(c(-c3ccccc3Cl)cc1=O)CCC2	inconclusive [inhibitor, partial curve]	–
COc1cccc(NC(=O)N2CCN(c3cccc(C)c3C)CC2)c1	–	inactive: -15.7%
COc1ccccc1N=Cc1nc(-c2ccccc2)oc1OC(C)=O	inconclusive [inhibitor, partial curve, poor fit]	–
COc1ccc(C(C)=O)cc1COC(=O)CNC(=O)c1cc(C)cc(C)c1	–	inactive: -13.4%
CCOC(=O)COc1ccc2c3c(c(=O)oc2c1C)CCC3	inconclusive [inhibitor, partial curve]	–
O=C(Nc1ccccc1-c1nc2ccccc2s1)c1cccnc1	inconclusive [inhibitor, full curve]	–
CCOC(=O)Nc1sc2c(c1C#N)CCC(C)C2 (centres undefined)	–	inactive: -9.16%
CC(C)C[C@@H](CC(=O)N[C@@H](CCCN)CC(=O)N[C@@H]1CCNC[C@H]1C(=O)N[C@H](CC(=O)N[C@@H](CCC(=O)O)CC(=O)O)CC(C)C)NC(=O)[C@@H]1CCCC[C@H]1N	–	inactive: -3.05%
Cn1cccc1/C=N/n1c(-c2ccc(Cl)cc2)n[nH]c1=S	active: 3.98 µM	–
Oc1ccc(NCc2ccccc2OCc2ccccc2)cc1	active: 14.1 µM	–
COC(=O)C1=CN(CCCN2CCCC2=O)C=C(C(=O)OC)C1c1cccs1	inconclusive [inhibitor, partial curve]	–

SMILES	Potency	activity change, negative = inhibition
O=C(COC(=O)c1cccc(C(F)(F)F)c1)NCc1ccc(Cl)cc1	active: 14.1 µM	–
CC(=O)c1sc2nc(-c3ccc(C)cc3)c3c(c2c1N)CCCC3	inconclusive [inhibitor, partial curve]	–
CC[C@H](C)[C@@H](NC(=O)O[C@H]1C(=O)c2cc(OC)ccc2O[C@@H]1c1ccc(OC)c(Br)c1)C(=O)OC	inconclusive [inhibitor, partial curve, poor fit]	–
O=C(Nc1cc(C(F)(F)F)ccc1N1CCOCC1)C1Cc2ccccc2CN1C(=O)c1ccco1 (centres undefined)	inconclusive [inhibitor, partial curve, poor fit]	–
Cc1cc2ccccc2c(=O)n1CC(=O)NC1CCCCCC1	inconclusive [inhibitor, partial curve]	–
COc1cc(NS(=O)(=O)c2ccc(Br)cc2)c(OC)cc1NC(=O)c1ccco1	inconclusive [inhibitor, partial curve]	–
COc1cc2c(cc1OC)C(c1ccccc1)N(C(=O)c1ccco1)CC2 (centres undefined)	inconclusive [inhibitor, partial curve]	–
Cc1nc2c(sc3nc4c(cc32)COC(C)(C)C4)c(=O)o1	–	inactive: -21.8%
Cc1ccnc(Nc2nc3ccccc3o2)n1	–	inactive: -13.2%
COc1ccc(OC)c(C2=NOC(C(=O)Nc3cccc(C(C)=O)c3)C2)c1 (centres undefined)	–	inactive: -16.7%
CCCc1nc(N2CCCC2)c(C#N)c2c1CCCC2	inconclusive [inhibitor, partial curve]	–
NC(=O)C1CCN(c2ncnc3c(-c4ccccc4)nsc23)CC1	–	inactive: -11.3%
COc1ccc(/C=C(\C#N)c2nc3ccc(C)cc3[nH]2)cc1Oc1ccc(C(F)(F)F)cc1[N+](=O)[O-]	–	inactive: -11.1%
N#C/C=C1/NC(=O)c2ccccc2S1	active: 2.24 µM	–
Cc1nn(-c2nc3ccccc3s2)c(C)c1Oc1ccccc1O	inconclusive [inhibitor, partial curve]	–
C=CCSc1n[nH]c(-c2ccc(OCCC)cc2)n1	inconclusive [inhibitor, partial curve]	–
COc1ccc(/C=N/NC(=O)c2ccccc2O)cc1CSc1ccccn1	inconclusive [inhibitor, partial curve]	–
Cc1onc(-c2c(F)cccc2Cl)c1C(=O)Nc1cccc2nsnc12	inconclusive [inhibitor, single point]	–
Cc1cc(C)n2nc(NCc3cccc(Br)c3)nc2n1	inconclusive [inhibitor, partial curve]	–
CCOC(=O)c1cnc(-n2nc(C)cc2C)nc1NC	inconclusive [inhibitor, partial curve]	–
Cn1c(SCC(=O)Nc2cccc(Br)c2)nnc1-c1cc2ccccc2o1	inconclusive [inhibitor, partial curve, poor fit]	–
CCCCNc1nc(N)nc(-c2cc(Cl)ccc2O)n1	inconclusive [inhibitor, partial curve]	–
COc1ccc(Cn2c3nc4ccccc4nc3c3c(=O)n(Cc4ccco4)cnc32)cc1	inconclusive [inhibitor, partial curve]	–
